# According to PubChem BioAssay AID588855 (National Center for Advancing Translational Sciences (NCATS), 2011):
# Out of some 410,000 compounds screened, about 5,000 (1.2%) were called active. Inconclusive means that the source gave no clear call. Such entries were picked first, then a sample of the others. Calls follow the shape of the dose curve; as a rule, active = well fitted inhibition curve with a large enough effect; inconclusive = small, poorly fitted or top-dose-only effect; inactive = no such curve, though single readings can be large or run the other way. Potencies of inconclusive entries are doubtful fits and often do not repeat.
# Test: qHTS for Inhibitors of TGF-b; also: nearly all actives have a fitted effect of over 65% in size
# Settings: HepG2 CAGA-GFP TGF-b/SMAD3 reporter, GFP fluorescence, 18 h, TGF-beta stimulated, 500 pg/mL final; series mostly up to 46.1 µM; activity, negative = inhibition: at the top concentration
# Procedure, shortened: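 Smad-responsive CAGA-GFP expression was quantified in HEPG2 cells exposed to compounds and 500 pg/mL final TGF-beta for 18 h at 37 degrees C; unstimulated wells defined full inhibition.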
# % is scaled to controls: 0 for no effect and ±100 for the full control effect; potency is read from the fitted curve at half-maximal effect; tags tell the direction and shape of the fitted curve.
SMILES,Potency,"activity, negative = inhibition"
CN1C(C(=O)Nc2ccc(F)cc2F)=CC(c2ccco2)=NS1(=O)=O,"inconclusive: 31.6 µM [inhibitor, single point]",
CC(=O)c1c(C)oc2ccc(NS(=O)(=O)c3ccc(F)cc3C)cc12,"inconclusive: 1.12 µM [inhibitor, full curve, poor fit]",
C/C=C/c1cccc(-c2nc(C(=O)NC3CCC3)cc3c2[C@H](CCO)N(S(=O)C(C)(C)C)C3)c1 (stereo partly drawn),"inconclusive: 15.8 µM [inhibitor, single point]",
COc1cc(NC(=O)CC2C(=O)N(c3ccc(Cl)cc3)C(=O)N2Cc2cccs2)cc(OC)c1 (stereo not drawn),"inconclusive: 25.1 µM [inhibitor, single point]",
CN(CC(=O)Nc1ccc(Cl)c(C(F)(F)F)c1)C(=O)c1ccc(S(=O)(=O)N2CCOCC2)cc1,"inconclusive: 11.2 µM [inhibitor, single point]",
O=C(Nc1cc(Br)ccc1O)C1CC(c2c(F)cccc2Cl)=NO1 (stereo not drawn),"inconclusive: 25.1 µM [inhibitor, single point]",
CCCCN1C(=N)N([C@@H](CN2CCC[C@H]2CN2C(N)=NC[C@@H]2Cc2ccccc2)C(C)C)C[C@H]1Cc1ccccc1,"inconclusive: 25.1 µM [inhibitor, single point]",
COCCCNC(=O)CN1C(=O)/C(=C\c2ccc(C)cc2)Sc2ccccc21,"inconclusive: 6.31 µM [inhibitor, single point]",
CCOC(=O)C1=C[C@@H](C(C)(C)C)N(S(=O)(=O)c2ccc(C)cc2)[C@H]1c1ccc(F)cc1,"inconclusive: 11.2 µM [inhibitor, single point]",
COc1ccc(N(CC(=O)NCCSCc2c(F)cccc2Cl)S(C)(=O)=O)cc1OC,,inactive: -1.47%
Cc1c(Cl)ccc(S(=O)(=O)N2CCN(C)CC2)c1Cl,,inactive: -4.58%
COC(=O)C1CCC(=O)N1C(c1ccc(OC)cc1)c1cc(OC)c(OC)c(OC)c1 (stereo not drawn),active: 2 µM,
CCOC(=O)c1c(C)[nH]c(CCC(=O)Nc2cc(C)ccc2OC)c1C,"inconclusive: 35.5 µM [inhibitor, single point]",
COc1cc(-c2nnn(CC(=O)Nc3ccc(OC(F)(F)F)cc3)n2)cc(OC)c1OC,"inconclusive: 35.5 µM [inhibitor, single point]",
CCOC(=O)c1cccc(NC(=O)CN2C(=O)c3ccccc3Sc3ncccc32)c1,,inactive: 8.4%
COc1cccc(-c2c(C(=O)N/N=C(\C)c3cccs3)nnn2-c2nonc2N)c1,"inconclusive: 11.2 µM [inhibitor, single point]",
CCCCN(CCCC)S(=O)(=O)c1ccc(C(=O)Nc2nnc(COC)o2)cc1,"inconclusive: 22.4 µM [inhibitor, single point]",
Cc1cc2ncn(CCCCOc3ccccc3)c2cc1C,"inconclusive: 35.5 µM [inhibitor, single point]",
Cc1cccc(NC(=O)c2ccc(N(Cc3ccccc3)S(C)(=O)=O)cc2)c1,"inconclusive: 22.4 µM [inhibitor, single point]",
CCOC(=O)NN1C(=O)c2ccccc2NC12CCCC2,"inconclusive: 35.5 µM [inhibitor, partial curve, poor fit]",
CC1CCN(C(=O)c2cccc(S(=O)(=O)N3CCN(c4ccccc4)CC3)c2)CC1,,inactive: -3.51%
C[C@@H]1CN([C@@H](C)CO)C(=O)CCCn2nncc2CO[C@H]1CN(C)Cc1ccccc1,,inactive: 5.49%

SMILES,Potency,"activity, negative = inhibition"
NC(=O)c1ccc(N=C2C(=O)Nc3ccc([N+](=O)[O-])cc32)cc1,,inactive: -10.8%
COc1ccc(CNC(=O)c2cnc3sc(N4CCCC4)nn3c2=O)cc1OC,,inactive: -3.4%
Cc1ccc2c(c1)C(c1ccc(F)cc1)N(C(=O)COc1ccc(Cl)cc1Cl)CC(=O)N2 (stereo not drawn),"inconclusive: 14.1 µM [inhibitor, single point]",
O=C(Nc1nc(-c2ccccc2)cs1)c1ccccc1NS(=O)(=O)c1ccc(F)cc1,"inconclusive: 1.41 µM [inhibitor, partial curve, poor fit]",
COc1ccc(C)cc1S(=O)(=O)N(CC(=O)Nc1cccc([N+](=O)[O-])c1)c1ccc(C)c(C)c1,,inactive: 5.68%
COc1ccc(N)c2c1C(=O)c1ccccc1C2=O,"inconclusive: 17.8 µM [inhibitor, single point]",
CCc1cc(C(=O)Nc2cc(S(=O)(=O)N(C)C)ccc2C)sc1C,,inactive: -28.9%
O=C(NNc1nc2ccc(Cl)cc2s1)c1cc(-c2cccs2)nc2ccccc12,active: 8.91 µM,
Cc1ccc(N2CCN(CC3CC=CCC3)CC2)cc1 (stereo not drawn),,inactive: -9.32%
O=C(/C=C/c1ccccc1Cl)Nc1ccc2c(c1)C(=O)NC2=O,,inactive: 3.36%
COc1ccccc1C(=O)NNC(=O)CN(C)S(=O)(=O)c1ccc(Cl)cc1,,inactive: 2.21%
COc1cccc2cc(C(C)OC(=O)Nc3ccc(C)cc3)oc12 (stereo not drawn),"inconclusive: 35.5 µM [inhibitor, single point]",
COc1ccc(-c2cc(-c3cc(C)ccc3O)[nH]n2)cc1,"inconclusive: 28.2 µM [inhibitor, single point]",
CCOC(=O)c1c(C)n(C)c2ccc(O)c(CN(C)C)c12,"inconclusive: 35.5 µM [inhibitor, single point]",
CCc1nc2ccc(C(=O)NCCc3c[nH]c4ccccc34)cn2c1N(C)Cc1ccc(N(C)C)cc1,,inactive: -16.1%
Cc1ccc(NC(=O)CSCC(=O)Nc2cc(C(F)(F)F)ccc2N2CCOCC2)cc1,"inconclusive: 35.5 µM [inhibitor, single point]",
O=C(CNC(=O)c1ccc(F)cc1)N/N=C/c1cc(Br)ccc1OCc1ccccc1,"inconclusive: 31.6 µM [inhibitor, single point]",
Cc1ccc(-n2nc(C(=O)NN)c(C)c(C#N)c2=O)cc1Cl,"inconclusive: 17.8 µM [inhibitor, partial curve, poor fit]",
O=C(COc1ccccc1)Nc1nnc(-c2ccc(Cl)cc2)o1,,inactive: 22.3%
COc1ccc(-c2noc(CCC(=O)NCCCN3CCN(c4ccccc4F)CC3)n2)cc1,,inactive: -27.9%
CC(=O)c1ccc(N2CCN(S(=O)(=O)c3ccc(-c4coc(C)n4)cc3)CC2)cc1,"inconclusive: 14.1 µM [inhibitor, partial curve, poor fit]",
